# Results taken from PMC4336329 (PLoS ONE, 2015).
# Out of some 310,000 compounds screened, about 2,200 (0.71%) showed an effect of 50% or more. The effect is printed as a negative number. The list shows a part of the results.
# Target: human ether-à-go-go-related gene (hERG) potassium channel (human, UniProt Q12809)
# Assay: primary screen, population patch clamp on CHO cells stably expressing hERG
# human ether-à-go-go-related gene (hERG) potassium channel, sequence (Q12809 whole entry, looked up): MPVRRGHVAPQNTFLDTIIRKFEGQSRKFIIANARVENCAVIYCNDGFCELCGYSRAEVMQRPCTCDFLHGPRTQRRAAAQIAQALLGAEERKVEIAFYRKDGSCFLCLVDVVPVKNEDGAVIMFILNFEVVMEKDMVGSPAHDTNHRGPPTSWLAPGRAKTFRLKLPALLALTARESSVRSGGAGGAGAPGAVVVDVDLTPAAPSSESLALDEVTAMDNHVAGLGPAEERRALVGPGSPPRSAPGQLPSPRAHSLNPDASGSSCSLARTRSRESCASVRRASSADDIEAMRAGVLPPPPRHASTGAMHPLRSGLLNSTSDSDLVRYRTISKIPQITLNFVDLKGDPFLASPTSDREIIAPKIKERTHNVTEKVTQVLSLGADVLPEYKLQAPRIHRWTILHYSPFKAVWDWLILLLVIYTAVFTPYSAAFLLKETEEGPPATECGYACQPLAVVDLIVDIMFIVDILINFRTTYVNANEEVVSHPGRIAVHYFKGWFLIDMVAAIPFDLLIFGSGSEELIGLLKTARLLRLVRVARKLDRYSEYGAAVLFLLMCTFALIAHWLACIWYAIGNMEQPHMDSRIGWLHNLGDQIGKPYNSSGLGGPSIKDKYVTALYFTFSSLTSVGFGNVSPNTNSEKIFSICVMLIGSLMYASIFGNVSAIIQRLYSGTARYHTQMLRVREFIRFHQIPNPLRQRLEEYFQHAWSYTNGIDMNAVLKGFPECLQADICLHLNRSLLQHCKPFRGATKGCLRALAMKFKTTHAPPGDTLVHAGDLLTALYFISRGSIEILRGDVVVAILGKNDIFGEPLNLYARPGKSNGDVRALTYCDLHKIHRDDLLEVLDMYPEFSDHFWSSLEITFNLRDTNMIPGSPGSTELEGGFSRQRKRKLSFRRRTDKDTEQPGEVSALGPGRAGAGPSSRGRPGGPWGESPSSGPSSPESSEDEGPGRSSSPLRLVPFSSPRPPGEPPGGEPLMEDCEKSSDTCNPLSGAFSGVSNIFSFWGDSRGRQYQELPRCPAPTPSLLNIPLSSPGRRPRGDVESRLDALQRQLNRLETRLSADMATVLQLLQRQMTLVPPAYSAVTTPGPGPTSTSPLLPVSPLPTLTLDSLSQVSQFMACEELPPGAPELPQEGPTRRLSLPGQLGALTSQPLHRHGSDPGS
row,SMILES,"hERG current change (%, negative = inhibition) at 1uM"
1,Cc1cc(C)c2c(=O)[nH]n(C(C)C)c2n1,13.8%
2,COc1ccc2c3c1OC1CC(O)C=CC31CCN(C)C2 (stereo not drawn),2.71%
3,C=C1Cn2c(nnc2-c2ccc(Cl)cc2)S1,-4.33%
4,CC1(c2ccc(Cl)cc2)NC(=O)N(CC(=O)Nc2ccc(F)cc2)C1=O (stereo not drawn),-3.15%
5,Nc1ccc2ncccc2c1,7.7%
6,Cc1ccc(CSc2nnc(SCC(=O)N/N=C/c3ccccc3OCC(=O)O)s2)cc1,4.62%
7,c1ccc(-c2csc(NC3=NCCCCC3)n2)cc1,-2.25%
8,O=C(CSc1nnc(-c2cccnc2)n1Cc1ccco1)N1CCc2ccccc21,-14.3%
9,O=C(COc1ccc(S(=O)(=O)N2CCCCC2)cc1)NC1CCCCC1,9.42%
10,O=C(CS(=O)CC(=O)Nc1cccnc1)Nc1ccc(F)cc1 (stereo not drawn),21.6%
11,CCOC(=O)C1(CCc2ccccc2)CCN(C(=O)CCc2cnccn2)CC1,-8.1%
12,COc1ccc([N+](=O)[O-])c(S(=O)(=O)c2ccc(Cl)cc2)n1,15%
13,COc1cc2[nH]c(=S)n(Cc3ccc(C)cc3)c(=O)c2cc1OC,17.6%
14,CCN1C(=O)Cc2cc(S(=O)(=O)NCCc3ccccc3)ccc21,16.1%
15,COc1cc(/C=C(\C#N)c2nc3ccccc3[nH]2)cc(Br)c1OCc1ccc(F)cc1,-3.28%
16,CCC(C)(C)NC(=O)Nc1cc(Cl)ccc1OC,11.2%
17,CC1=C(C(=O)Nc2ccc(C(=O)NC(C)c3ccccc3)cc2)SCCO1 (stereo not drawn),12.2%
18,O=S1(=O)CCOC[C@H](c2ccccc2)N1Cc1cccc(Cl)c1,15.1%
19,O=C(CN(C(=O)c1csnn1)c1ccccc1C(F)(F)F)NCc1ccccc1,12%
20,CCCn1cc(CN2CCN(Cc3ccc(C)o3)C(CCO)C2)c(C)n1 (stereo not drawn),7.78%
21,COC(=O)CCC(NS(=O)(=O)OCC(Cl)(Cl)Cl)c1ccccc1 (stereo not drawn),6.34%
22,CCN(CC)S(=O)(=O)c1ccc(N2CCOCC2)c(NC(=O)c2ccccc2F)c1,7.36%
23,CCOC(=O)N1CCN(CC(O)COCc2cc(OC)c(OC)c(OC)c2)CC1.Cl (stereo not drawn),16.3%

row,SMILES,"hERG current change (%, negative = inhibition) at 1uM"
1,COC(=O)c1ccccc1NC(=S)NC(=O)c1ccccc1,13.8%
2,CCOc1ccc(N(C(=O)c2ccc(S(=O)(=O)N3CCCC3)cc2)C2C=CS(=O)(=O)C2)cc1 (stereo not drawn),-15.6%
3,COc1cc(/C=C/c2ccc3cccc(O)c3n2)ccc1O,9.59%
4,CCOC(=O)C1=C(C)N=C2SC(C(=O)OC)=CC(=O)N2C1c1cccc(OC)c1 (stereo not drawn),3.39%
5,Cc1cc(C)nc(Nc2n[nH]c(-c3ccc(C(C)(C)C)cc3)n2)n1,16.5%
6,COc1cccc(C(=O)N(c2ccccc2)C2C=CS(=O)(=O)C2)c1 (stereo not drawn),11.4%
7,CCCCNc1nc2sc3c(c2c(=O)n1-c1cccc(Cl)c1)CCN(C)C3,10.2%
8,O=C(CC(Sc1ccc(Br)cc1)C(=O)O)c1ccc(Br)cc1 (stereo not drawn),18.1%
9,Cc1ccc(C(=O)N2CCCC(CCC(=O)N3CCN(c4ccccn4)CC3)C2)cn1 (stereo not drawn),5.08%
10,Cn1c(=O)c2cc(S(=O)(=O)Nc3cc(C(=O)O)cc(C(=O)O)c3)ccc2n(C)c1=O,10%
11,Cc1cc(C)n(CCOc2ccc(Cl)cc2Cl)n1,8.11%
12,Cc1sc(-c2ccccn2)nc1OC(=O)c1cccc(Cl)c1Cl,6.7%
13,O=S(=O)(NCCNS(=O)(=O)c1ccccc1)c1ccccc1,1.31%
14,Cc1cc([N+](=O)[O-])nn1CC(=O)N(C)C1CCCCC1,-22.1%
15,COC(=O)c1c(NC(=S)Nc2ccc(CC(=O)O)cc2)sc(C)c1C,14.9%
16,Cc1ccccc1OC(C)C(=O)Nc1ccc(S(=O)(=O)N2CCCC2)cc1 (stereo not drawn),-6.84%
17,CCOc1cc(NC(=O)c2ccco2)c(OCC)cc1NC(=O)c1ccco1,9.13%
18,CC1=NN(c2ccccc2)C(=O)/C1=C/c1cc(C)n(C2CC2)c1C,10.9%
19,CCCCN(CCCC)C(=O)CCS(=O)(=O)c1ccc2c(c1)n(C)c(=O)c(=O)n2C,-35.6%
20,CCOC(=O)N1CCC(NC(=O)C2CCN(S(=O)(=O)c3cccc4cccnc34)CC2)CC1,3.97%
21,CN1C[C@@H]2C(c3ccccc3)C3(c4ccc(C#N)cc4)CC2(C3)[C@H]1c1ccccc1 (stereo partly drawn),12.7%
22,CCC1(C)NC(=O)N(CC(=O)N2CCN(c3cccc(Cl)c3)CC2)C1=O (stereo not drawn),10.7%
23,O=C(NCCO)/C(=C/c1ccc(Br)cc1)NC(=O)c1cccs1,-8.3%

row,SMILES,"hERG current change (%, negative = inhibition) at 1uM"
1,CN1CCN(C(=O)c2cc3ccccc3oc2=O)CC1,8.34%
2,CC1=C(C)CS(=O)N(S(=O)(=O)c2ccc(Cl)cc2)C1 (stereo not drawn),9.09%
3,CN(C)S(=O)(=O)c1cccc(NC(=O)CN2C(=O)NC(Cc3ccccc3)C2=O)c1 (stereo not drawn),5.03%
4,CSc1nnc2c3cc(C)ccc3n(Cc3ccccc3)c2n1,10.3%
5,C1N2CN3CN1CN(C2)C3,6.19%
6,Cc1cccn2c(=O)c3c(nc12)N1CCCCCC1C1(C3)C(=O)N(C)C(=O)N(C)C1=O (stereo not drawn),12.6%
7,CCC(c1nnnn1CCc1ccccc1)N1CCN(c2ccc(OC)cc2)CC1 (stereo not drawn),14.5%
8,CC(=O)Nc1c(O)nc(C)[nH]c1=O,9.53%
9,CC(=O)c1sc(NCc2ccc(C)cc2)nc1C,10.4%
10,O=C(C1CCCN(S(=O)(=O)Cc2ccccc2)C1)N1CCC(Cc2ccccc2)CC1 (stereo not drawn),9.04%
11,Cc1nc(NCC2CCCO2)nc2c1C(=O)CC(C)C2 (stereo not drawn),-3.04%
12,Cc1ccc(NC(=O)C2CCCN(S(=O)(=O)c3cccc4nonc34)C2)cc1 (stereo not drawn),12.1%
13,COc1ccc(NS(=O)(=O)c2ccc(O)c(NC(=O)c3ccc(S(=O)(=O)N4CCCCCC4)cc3)c2)cc1,3.32%
14,Cc1nn2c(-c3ccc(S(=O)(=O)N4CCN(CCO)CC4)o3)nnc2c2ccccc12,24%
15,CCNC(=O)NNC(=O)C1CC(c2cccnc2)=NO1 (stereo not drawn),6.79%
16,O=C(c1nc2ccccn2c1CNCCn1ccc2ccccc21)N1CCOCC1,17.6%
17,Cn1c(=O)oc2cc(S(=O)(=O)Nc3ccccc3)ccc21,10.4%
18,Oc1c(Cl)cc(Cl)cc1CNc1nc2ccccc2[nH]1,12.6%
19,Cc1ccc(C)c(Sc2ccc(NC(=O)CCl)cc2)c1,13.6%
20,Cc1c(Br)c(C(F)(F)F)nn1CC(=O)NCC1CCCO1 (stereo not drawn),0.408%
21,Cc1ccc(-c2nc3ccccc3[nH]c2=O)cc1,6.32%
22,Cc1cc2c3c([nH]c2cc1S(=O)(=O)N1CCC2(CC1)OCCO2)CCCC3=O,8.36%
23,CC(C)Oc1ccc(/C=N/NC(=O)c2nnn(-c3nonc3N)c2CN(C)c2ccccc2)cc1,9.88%

row,SMILES,"hERG current change (%, negative = inhibition) at 1uM"
1,CC(=O)Nc1ccc(S(=O)(=O)N(C)c2ccc(OCC(=O)OCC(=O)Nc3ccc(OC(F)F)cc3)cc2)cc1,5.6%
2,CCC(C)NCCOCCOc1ccc(Br)cc1.O=C(O)C(=O)O (stereo not drawn),1.3%
3,COc1ccc(S(=O)(=O)N2CCCCCC2)cc1C(=O)N(C)Cc1ccc(OC)c(OC)c1OC,-4.49%
4,COC(=O)c1ccccc1NC(=O)NCc1ccc2c(c1)OCO2,3.19%
5,COc1ccc(CNS(=O)(=O)c2ccc3c(c2)N(C)CCO3)cc1,8.48%
6,Cc1nnc(NN)n(N)c1=O,6.71%
7,Cc1ccc(/C=N/NC(=O)c2nnn(-c3nonc3N)c2-c2ccccc2)o1,20.8%
8,CC1=NN(c2nc(-c3ccccc3)cs2)C(=O)C1N=Nc1ccccc1 (stereo not drawn),7.8%
9,Cc1noc(C)c1S(=O)(=O)NCCCN1CCN(Cc2ccccc2)CC1,5.91%
10,O=c1[nH]c(=O)n(C2OC(CO)C(O)C2O)cc1Br (stereo not drawn),18.7%
11,CC(=O)C1=C(C)NC(=O)CC1c1ccc(F)cc1 (stereo not drawn),3.49%
12,COc1ccc(S(=O)(=O)NCc2cccnc2)cc1C,13.5%
13,CC12CCC(C(=O)[O-])(C/C1=N\O)C2(C)C.[Na+] (stereo not drawn),19.2%
14,O=C(Nc1ccc2ccccc2c1)c1nn(C23CC4CC(CC(C4)C2)C3)cc1Br,13.2%
15,O=C(C1CC(c2cccc(Br)c2)=NO1)N1CCc2ccccc2C1 (stereo not drawn),9.23%
16,CCOC(=O)c1ccc(NC(=O)NCc2ccn(CC)n2)cc1,1.47%
17,CCn1c(=N)n(CC(O)COc2ccc(C)cc2)c2ccccc21.Cl (stereo not drawn),-16.8%
18,O=C(c1ccc([N+](=O)[O-])cc1)N1CCSC1c1ccccc1 (stereo not drawn),-6.02%
19,Cc1cccc(NC(=S)NCCN2CCOCC2)c1C,3.59%
20,COc1ccc(CNC(=O)C2CCCN2CCc2ccccc2)cc1OC (stereo not drawn),-4.95%
21,Fc1ccccc1N1CCN(CCCNc2ccc3nncn3n2)CC1,7.34%
